# From PubChem BioAssay AID1240 (Sanford-Burnham Center for Chemical Genomics, 2008)
# Hit rate of the full screen: of about 50,000 compounds, about 800 (1.6%) showed an effect of 50% or more. Some of the results follow.
# Biological target: Bcl-2-like protein 10 (Homo sapiens) (UniProt Q9HD36)
# Experiment: TR3 peptide-Bcl-B binding displacers, biochemical primary FP assay, phenotype converters (AID 1240);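 note: 0% = Bcl-B with tracer peptide and DMSO and 100% = tracer peptide lacking Bcl-B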
# Settings: GST-Bcl-B / FITC-TR3 peptide fluorescence polarization; stronger effect = higher value; compound at 3.75 mg/L
# Sequence of UniProt Q9HD36 (Q9HD36 whole entry, looked up): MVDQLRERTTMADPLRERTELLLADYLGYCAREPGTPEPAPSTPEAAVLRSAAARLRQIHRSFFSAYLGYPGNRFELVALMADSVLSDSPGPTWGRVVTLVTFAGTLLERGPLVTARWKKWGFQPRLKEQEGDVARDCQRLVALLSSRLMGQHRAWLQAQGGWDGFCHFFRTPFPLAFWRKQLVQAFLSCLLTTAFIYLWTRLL
row,SMILES,displacement [%]
1,COCCN1C(=O)/C(=C/c2ccc(O)c(OC)c2)SC1=S,-4.4
2,COc1ccc2[nH]c3c(c2c1)CCn1c-3nc2scc(-c3ccccc3)c2c1=O,0.2
3,CC(NC(=O)c1ccc(Br)cc1)c1ccccc1 (stereo unspecified),6.5
4,CC1CC(C)(C)NCCNC(C)CC(C)(C)NCCN1 (stereo unspecified),5.2
5,Cc1cc(-c2nnc(-c3ccc4c(c3)OCO4)o2)ccc1[N+](=O)[O-],19.4
6,Cc1c(NC(=S)NC(=O)/C=C/c2ccccc2)cccc1-c1nc2ncccc2o1,2.1
7,CCn1c2c(c3cc(Br)ccc31)CCCC2O (stereo unspecified),10.6
8,CCN(CC)c1ccc(/C=C2\C(=O)NC(=S)N(c3cccc(Br)c3)C2=O)o1,4.2
9,c1ccc2c(c1)NC1CCCCC1C1(CCCCC1)N2 (stereo unspecified),4.5
10,CCN(CC)c1ccc(/C=C2/C(=O)NC(=O)N(c3ccccc3)C2=O)cc1,-1.2
11,Cc1ccc(/C(O)=C2\C(=O)C(=O)N(c3nccs3)C2c2cccc(Br)c2)cc1 (stereo unspecified),29.5
12,Cc1c(Cl)cccc1NC(=O)/C(C#N)=C/c1ccc(C(=O)O)cc1,-0.6
13,O=C1NC(=O)N(c2ccccc2)C(=O)/C1=C\c1cccc([N+](=O)[O-])c1,7.3
14,CCOC(=O)c1c(NC(=O)CN2C(=O)c3cccc4cccc(c34)C2=O)sc2c1CCCC2,1.6
15,CCOc1ccc(N(CC(=O)N2CCOCC2)S(=O)(=O)c2ccc(Cl)cc2)cc1,10.7
16,COC(=O)c1ccccc1NC(=O)COc1ccc2ccccc2c1,3.2
17,COc1cc(/C=N/n2cnnc2)c([N+](=O)[O-])cc1OCCC(C)C,9.6
18,COC(=O)c1ccc(C(=O)OC)c(NC(=O)c2c(Cl)cccc2Cl)c1,9.6
19,Cc1ccc(NC(=O)/C=C/c2ccccc2Cl)c(Br)c1,19.1
20,CCN(CC)c1ccc(NC(=O)CCCOc2ccccc2)cc1,-5.8
21,NC(=O)c1c(NC(=O)c2cc(Cl)ccc2[N+](=O)[O-])sc2c1CCCC2,-9.7
22,Cc1[nH]c2ccccc2c1/C=C/c1nc2ccccc2c(=O)n1Cc1ccccc1,-5.8

row,SMILES,displacement [%]
1,O=C(NC12CC3CC(CC(C3)C1)C2)C1CC(=O)N(c2ccc(Br)cc2)C1 (stereo unspecified),7.6
2,O=C1C/C(=C/Nc2ccccc2)C(=O)N1,5.8
3,COC(=O)c1c(NC(=O)CCCC(=O)O)sc2c1CCC(C)C2 (stereo unspecified),-12.9
4,CCc1ccc(-c2nc3cc(NC(=O)c4ccc([N+](=O)[O-])c(C)c4)ccc3o2)cc1,-1.7
5,O=C1N=c2ccccc2=C1c1sc(Nc2cccc(Cl)c2Cl)nc1O,15.8
6,Cc1c(NC(=O)C(C)Oc2ccc(Cl)cc2Cl)c(=O)n(-c2ccccc2)n1C (stereo unspecified),0.3
7,O=c1[nH]cc(CN2CCOCC2)c(=O)[nH]1,-9.3
8,COc1ccccc1NC(=O)c1c(NC(=O)C(C)(C)C)sc2c1CCCCC2,-2
9,COc1ccccc1NC(=O)/C(=C\c1cccc([N+](=O)[O-])c1)NC(=O)c1cccs1,-4.9
10,Cc1ccc(NC(=O)COc2ccccc2)c([N+](=O)[O-])c1,-2.4
11,CC1=C(C(=O)OCCc2ccccc2)C(c2ccc(O)c([N+](=O)[O-])c2)NC(=O)N1 (stereo unspecified),5.4
12,CCN(CC)S(=O)(=O)c1ccc(NC(C)=O)cc1,-5.4
13,COc1ccc(Cl)cc1/C=C(/C#N)c1nc2ccccc2[nH]1,-2.8
14,O=C1/C(=C\c2ccc(-c3cccc(Cl)c3)o2)SC(=S)N1CCS(=O)(=O)O,-24.2
15,CC(=O)Nc1nonc1-c1nc2ccccc2n1Cc1ccc(C(C)(C)C)cc1,52.2
16,O=C1C(=O)N(c2cccnc2)C(c2ccccc2[N+](=O)[O-])/C1=C(\O)c1ccc(Cl)cc1 (stereo unspecified),18.3
17,COc1ccc(NC2=Nc3cccc4cccc2c34)cc1,-16.9
18,CCOC(=O)C1=C(C)N=c2s/c(=C\c3ccc(OCC(=O)O)cc3)c(=O)n2C1c1ccccc1 (stereo unspecified),-12.5
19,COc1ccc(Nc2nc(-c3ccc(Cl)c(Cl)c3)cs2)cc1,13.7
20,Cc1ccc(CN2CCN(N=Cc3ccc(N(C)C)cc3)CC2)c(C)c1,-4.8
21,CCCCCc1nc2sc3c(c2c(=O)n1N)CCCC3,-6.1
22,CC(=O)Oc1ccc2c(C)c(C)c(=O)oc2c1C,7.3

row,SMILES,displacement [%]
1,Cc1ccc(-c2cc(C(=O)N/N=C/c3ccc(Br)cc3)[nH]n2)cc1,-5.2
2,O=S(=O)(N/N=C/c1cc(Cl)ccc1O)c1ccc(Cl)cc1,11.9
3,CNc1nc(Nc2cccc([N+](=O)[O-])c2)nc(OCC(F)(F)F)n1,-28.1
4,O=C1C2C3c4ccccc4C(C(=O)O)(c4ccccc43)C2C(=O)N1c1cccc([N+](=O)[O-])c1 (stereo unspecified),-7
5,CCc1ccccc1NC1=NS(=O)(=O)c2cc([N+](=O)[O-])ccc21,2.5
6,COc1cc(/C=N\NC(=O)CNc2ccc(C)cc2)ccc1OCc1ccccc1,0.3
7,O=C1C2C(C(=O)N1c1ccccc1Cl)C1C=CC2C12CC2 (stereo unspecified),-1.2
8,CCOc1c(Br)cc(/C=C2\C(=O)NC(=O)N(c3ccc(OC)cc3)C2=O)cc1OC,10.1
9,Cc1ccc(C)c(NC(=O)C2C3C4CCC(C4)C23)c1 (stereo unspecified),-7.2
10,O=C(N1CCOCC1)C(F)(F)C(F)(F)C(F)(F)C(F)(F)C(=O)N1CCOCC1,6.7
11,O=C(CCc1ccccc1)NCc1ccccc1Cl,-1.9
12,COc1ccccc1-c1nnc(NC(=O)Nc2ccc(Cl)c(Cl)c2)s1,2.7
13,COc1ccc(N(CC(=O)N/N=C(\C)c2ccccc2)S(=O)(=O)c2ccccc2)cc1,-4
14,O=CNC(Nc1ccc(Cl)cc1Cl)C(Cl)(Cl)Cl (stereo unspecified),-0.1
15,S=c1[nH]nc(-c2ccccc2Cl)n1C1CCCCC1,-32.4
16,CN(C)c1cc(N/N=C/c2ccc([N+](=O)[O-])cc2)nc(N(C)C)n1,7.5
17,COc1ccccc1NC(=O)C(Cc1c[nH]c2ccccc12)NC(=O)Oc1ccccc1 (stereo unspecified),10.1
18,CC1=C(C(=O)OCC(C)C)C(c2ccsc2)C2=C(CCCC2=O)N1 (stereo unspecified),-11.4
19,COc1ccc(-n2c(/C=C/N(C)C)c([N+](=O)[O-])c3ccc(O)c(COC(C)=O)c32)cc1,2.6
20,CC(C)Oc1ccc(-c2nc3sc4c(c3c(=O)[nH]2)CCCC4)cc1,-6.9
21,COc1ccc(C(=O)Nc2ccc(C(N)=O)cc2)cc1[N+](=O)[O-],13.2
22,Cc1ccc(CNC(=O)C23CC4CC(CC(C4)C2)C3)cc1,10.4

row,SMILES,displacement [%]
1,COc1ccc(C(=O)NNC(=O)c2cccc(C)c2O)cc1OC,-1.1
2,C/C(=C\c1ccccc1)C(=O)c1c(C)cc(C)[nH]c1=O,12.9
3,CCOC(=O)c1c(C)sc(Sc2ccc(Br)cc2[N+](=O)[O-])c1OC,-9
4,COc1ccc(N(CC(=O)N2CCOCC2)S(C)(=O)=O)cc1,7.1
5,CCN(CC)C(=O)C(=O)NNC(=O)COc1ccc(Cl)cc1,-6.7
6,COc1ccccc1-n1c(C)c(C(=O)O)c2cc(OC)c3ccccc3c21,13.8
7,COc1ccc(-c2cc(C(=O)N3CCN(C)CC3)c3ccccc3n2)cc1OC,5.2
8,CCc1ccccc1NC(=O)C(C)Oc1ccc(OC)cc1 (stereo unspecified),9.1
9,O=C(NCCc1ccc(F)cc1)C(=O)Nc1cccc(Cl)c1,-0.4
10,CCOC(=O)C1=C(C)NC2=C(C(=O)c3ccccc32)C1c1ccccc1[N+](=O)[O-] (stereo unspecified),-3.5
11,O=C(Nc1ccc([N+](=O)[O-])cc1)C1C(c2ccccc2)=C1c1ccccc1,-4.7
12,CCCNC(=O)OCC12CC3CC(CC(C3)C1)C2,0.2
13,Cc1nc(NC(=O)c2ccccc2)sc1-c1csc(Nc2ccc(O)cc2)n1,-1.9
14,COC(=O)c1ccc(-n2c(C)ccc2-c2ccccc2)cc1,12.8
15,O=C(/C=C/c1ccccc1)N1CCN(c2nc3ccc([N+](=O)[O-])cc3s2)CC1,15
16,Cn1c(CC(O)(c2ccccc2)c2ccccc2)nc2ccccc21,15.7
17,COc1ccc(N(CC(=O)NCC(C)C)S(=O)(=O)c2ccc(C)cc2)cc1,0.8
18,Oc1ccccc1/C=N/Nc1nc(N2CCOCC2)nc(N2CCOCC2)n1,6.9
19,COc1cc(C2NC(=O)N(C)C(C)=C2C(=O)OCc2ccccc2)cc(Br)c1O (stereo unspecified),-4.8
20,CC(=O)c1sc(N)c(C(=O)OC(C)C)c1C,6.2
21,Cc1ccc(NC(=O)c2ccc(C)o2)cc1,2.5
22,COc1ccc(OC)c(S(=O)(=O)NCc2ccccn2)c1,14

row,SMILES,displacement [%]
1,CCOc1ccc(C(=O)Nc2cccc(-c3nc4ncccc4o3)c2C)cc1Cl,3.5
2,CN1CCN(Cn2c(O)c(N=NC(=O)c3ccccc3)c3ccccc32)CC1,-16.9
3,O=C(Nc1ccccc1NC(=O)c1ccc(F)cc1)c1ccc(F)cc1,7.7
4,COC(=O)c1ccc(/C=N/c2c(-c3ccco3)nc3ccccn23)cc1,14.4
5,CCc1ncc(C(O)c2ccccc2OC)n1C (stereo unspecified),8.3
6,Cc1ccc2cccc(SCC(=O)c3ccc(Br)cc3)c2n1,6.1
7,CCOC(=O)C(CCOCCOc1c(Cl)cc(Cl)cc1Cl)C(=O)OCC,12.1
8,O=[N+]([O-])c1ccc(-n2nncc2C23CC4CC(CC(C4)C2)C3)cc1,-4.7
9,O=C(c1cccs1)N1CCN(c2cc(N3CCCC3)c(F)cc2[N+](=O)[O-])CC1,-1.4
10,COc1ccc(C2=NN(C(=O)CCC(=O)O)C(c3ccc([N+](=O)[O-])cc3)C2)cc1 (stereo unspecified),12.6
11,COc1cc2c(cc1OC)C1(CCCC1)CNC2c1cccc([N+](=O)[O-])c1 (stereo unspecified),-3.8
12,CCOC(=O)C(CCCCCOc1ccccc1C(C)(C)C)C(=O)OCC,9.4
13,CN(C(=O)c1ccc(F)cc1)C1CCCCC1,3.1
14,O=C(Nc1ccc(OC(F)F)cc1)c1cccs1,-0.2
15,CCCc1nnc(NC(=O)CSc2nc3ccccc3s2)s1,-17.3
16,COc1cc(CN2CCN(C3CCN(Cc4ccccc4)CC3)CC2)cc(OC)c1OC,-4.6
17,COc1cccc(C2(c3cccc(OC)c3)CC2C(=O)NCc2ccccc2)c1 (stereo unspecified),-0.5
18,O=C(Nc1ccc(-c2nc3ccccc3s2)c(O)c1)c1ccc(-c2cccc([N+](=O)[O-])c2)o1,6.1
